In all, about 310,000 compounds went through this assay and about 14,000 (4.5%) showed an effect of 50% or more. Effects have a minus sign here. The list shows a part of the results.
target: human ether-à-go-go-related gene (hERG) potassium channel (human, UniProt Q12809); assay: primary screen, population patch clamp on CHO cells stably expressing hERG
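Note: peak tail current of the secondary pulse compared with the same well before compound.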

human ether-à-go-go-related gene (hERG) potassium channel, sequence (Q12809 whole entry, looked up): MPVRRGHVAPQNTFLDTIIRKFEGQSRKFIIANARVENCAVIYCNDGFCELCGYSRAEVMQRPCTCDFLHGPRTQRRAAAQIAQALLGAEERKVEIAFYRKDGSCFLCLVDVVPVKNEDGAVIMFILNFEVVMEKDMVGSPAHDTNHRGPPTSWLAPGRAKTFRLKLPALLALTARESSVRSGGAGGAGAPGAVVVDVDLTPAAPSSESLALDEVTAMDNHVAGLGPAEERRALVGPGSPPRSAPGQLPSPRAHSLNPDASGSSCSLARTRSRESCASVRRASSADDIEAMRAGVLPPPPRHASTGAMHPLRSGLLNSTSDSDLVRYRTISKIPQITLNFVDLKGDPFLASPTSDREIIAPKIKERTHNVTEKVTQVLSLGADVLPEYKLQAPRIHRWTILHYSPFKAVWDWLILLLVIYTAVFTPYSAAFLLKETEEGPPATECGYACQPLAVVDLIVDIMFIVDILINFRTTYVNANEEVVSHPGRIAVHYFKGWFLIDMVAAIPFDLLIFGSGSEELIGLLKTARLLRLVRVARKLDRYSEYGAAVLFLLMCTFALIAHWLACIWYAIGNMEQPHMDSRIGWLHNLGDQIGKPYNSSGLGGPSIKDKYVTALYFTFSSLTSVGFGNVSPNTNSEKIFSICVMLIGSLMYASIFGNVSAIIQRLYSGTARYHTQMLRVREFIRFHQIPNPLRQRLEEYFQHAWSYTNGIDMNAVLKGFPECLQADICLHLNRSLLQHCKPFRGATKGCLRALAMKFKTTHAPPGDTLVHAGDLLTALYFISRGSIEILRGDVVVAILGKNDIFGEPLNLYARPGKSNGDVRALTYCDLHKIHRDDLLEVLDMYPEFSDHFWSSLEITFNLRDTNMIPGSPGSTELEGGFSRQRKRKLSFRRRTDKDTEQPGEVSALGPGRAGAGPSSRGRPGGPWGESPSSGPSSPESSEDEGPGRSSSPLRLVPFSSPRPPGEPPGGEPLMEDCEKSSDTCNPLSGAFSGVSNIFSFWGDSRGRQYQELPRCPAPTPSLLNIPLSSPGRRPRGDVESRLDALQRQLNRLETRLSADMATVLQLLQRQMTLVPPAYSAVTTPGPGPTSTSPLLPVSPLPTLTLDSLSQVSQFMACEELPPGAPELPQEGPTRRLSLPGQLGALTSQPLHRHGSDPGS

Compound | hERG current change (%, negative = inhibition) at 10uM [%]
O=C(Cc1cccs1)N=Nc1c(O)[nH]c2ccc(Br)cc12 | -4.97
Cc1cc(C)c2c(c1)C1(OCCO1)C(=O)N2 | 15.6
O=C(Cn1nnc(-c2ccc(Cl)cc2)n1)NCCC1=CCCCC1 | 5.97
COc1ccc(-c2nn(C)c(=O)c3ccccc23)cc1CNC(=O)CN1CCOCC1 | -3.03
COc1cc(C(=O)Nc2nnc(SCC(=O)NCC3CCCO3)s2)cc(OC)c1OC (stereo not shown) | 19.9
C/C(=C\C1CCCCC1)C(NC(=O)c1ccc(C(F)(F)F)cc1)c1ccc(-c2ccccc2)cc1 (stereo not shown) | 15.7
Cc1ccc(Cl)cc1N1CCN(S(=O)(=O)N2CCCCC2)CC1 | 10.1
COc1ccccc1OCCOCCn1cnc2ccccc2c1=O | -3.9
CCc1ccccc1NC(=O)c1cc(-c2ccco2)on1 | 8.57
Cc1cc(C)c(C(=O)CSC2=NC(N)=C(C#N)C3(CCCCC3)C2C(N)=O)cc1C (stereo not shown) | -6.61
CN(Cc1ccc(Br)cc1)C(=O)CCN1C(=O)c2cccc([N+](=O)[O-])c2C1=O | 21.8
Cc1cc2c(cc1S(N)(=O)=O)S(=O)(=O)CCC2 | 24.5
Cc1c(C(=O)OCCN2CCCCC2)oc2ccccc12.Cl | -43.2
O=C(O)Cn1c(=O)cnc2ccccc21 | 9.56
Cl.N[C@H]1C(O)O[C@H](CO)[C@@H](O)[C@@H]1O (stereo partly shown) | 22.4
COc1ccc(NC(=O)CSc2nncs2)cc1S(N)(=O)=O | 3.55
Cc1cc2c(NCCc3ccccc3)ncnc2s1.Cl | -14.4
CC12CCC(=O)N1C(C(=O)NNC(=O)COc1ccccc1F)CS2 (stereo not shown) | 11.1
CC1(C)Cc2ccccc2/C(=C/C(=O)c2ccccc2)N1 | 7.35
O=C(CCC(=O)Nc1ccccc1)N/N=C/c1ccccc1F | 9.14
CC1CCN(CC(O)COc2ccc(F)cc2)CC1 (stereo not shown) | -37.7
O=C(NNS(=O)(=O)c1ccc(F)cc1)c1cc(Cl)ccc1O | 11.4
CCCCN1CC[C@H]2C=CC[C@@H](C(=O)Nc3ccc(Cl)c(C(F)(F)F)c3)[C@H]2C1=O | -34.2

Compound | hERG current change (%, negative = inhibition) at 10uM [%]
Cc1c(CC=C(Cl)Cl)c(=O)[nH]c2c(C)cccc12 | 22.2
Cc1cccc(NC(=O)NC2(C)CCS(=O)(=O)C2)c1 (stereo not shown) | 6.52
CCOc1ccccc1-n1cnc2cc(C(=O)NCc3ccco3)ccc21 | -31.3
COc1ccc(C(=O)COC(=O)CNC(=O)c2cccs2)cc1Br | -19
N#CCOC(=O)C1c2ccccc2Oc2ccccc21 | -1.32
COc1ccc(OC)c(-c2csc(N(Cc3ccco3)C(=O)c3cccs3)n2)c1 | 0.858
COC(=O)C1=C(C)Nc2c(c(=O)n(C)c(=O)n2C)C1c1cccc(O)c1 (stereo not shown) | 11.5
COCCNc1nc(N)c([N+](=O)[O-])c(NCc2ccccc2)n1 | 5.84
CCOC(=O)N1CCN(Cc2nc(N)nc(Nc3ccc(OCC)cc3)n2)CC1 | -67.6
Cc1ccc(NC(=O)CN2C(=O)/C(=C\c3cccs3)SC2=S)cc1 | -1.74
O=C(c1csc(Nc2cccc3ccccc23)n1)N1CCCC1 | -23.8
CC(=O)c1ccc(NS(=O)(=O)c2ccccc2)cc1 | -5.26
S=c1[nH]cnc2sc(-c3ccccc3)cc12 | 8.96
COc1ccc(S(=O)(=O)N2CCN(C(=S)Nc3ccc(S(N)(=O)=O)cc3)CC2)cc1 | 15.7
O=C(Nc1nncs1)c1cc(-c2ccncc2)nc2ccc(Cl)cc12 | 4.4
Cc1cc(N)n2ncc(-c3ccc(F)cc3)c2n1 | -1.46
CC1CCCN(c2nc3ccsc3c(=O)s2)C1 (stereo not shown) | -16
C/C(=N\NC(=O)c1ccc(O)cc1)c1ccc(NC(=O)Cc2ccccc2)cc1 | 15.3
COc1ccc2nc(NC(=O)C3CCN(S(=O)(=O)c4cnc[nH]4)CC3)sc2c1 | 17.5
O=C(O)Cn1nc(C(F)(F)F)c2c1CCCC2 | 8.89
COC(=O)C1=C(CS(=O)(=O)c2ccc(OC)cc2)NC(=O)NC1c1ccccc1 (stereo not shown) | 11.6
COc1ccc(C2CC(c3ccc(OC)cc3)n3nc(NC(=O)c4ccco4)nc3N2)cc1 (stereo not shown) | -19.2
CCOC(=O)N1CCN(S(=O)(=O)CCNC(=O)c2ccc(F)cc2)CC1 | -20.1

— publication PMC4336329 (PLoS ONE, 2015)
